Results taken from PMC11638247.
Results are given in words; binding and its absence hold for the method and conditions named. For some assays here: Binding seen in cells or lysates may run through a third protein. Some results given as binding are weak or reduced against the parent protein; the word gives no strength.

Protein sequences, listed by entry. Tags and fused reporters are not part of them.
UniProt Q9EPN1: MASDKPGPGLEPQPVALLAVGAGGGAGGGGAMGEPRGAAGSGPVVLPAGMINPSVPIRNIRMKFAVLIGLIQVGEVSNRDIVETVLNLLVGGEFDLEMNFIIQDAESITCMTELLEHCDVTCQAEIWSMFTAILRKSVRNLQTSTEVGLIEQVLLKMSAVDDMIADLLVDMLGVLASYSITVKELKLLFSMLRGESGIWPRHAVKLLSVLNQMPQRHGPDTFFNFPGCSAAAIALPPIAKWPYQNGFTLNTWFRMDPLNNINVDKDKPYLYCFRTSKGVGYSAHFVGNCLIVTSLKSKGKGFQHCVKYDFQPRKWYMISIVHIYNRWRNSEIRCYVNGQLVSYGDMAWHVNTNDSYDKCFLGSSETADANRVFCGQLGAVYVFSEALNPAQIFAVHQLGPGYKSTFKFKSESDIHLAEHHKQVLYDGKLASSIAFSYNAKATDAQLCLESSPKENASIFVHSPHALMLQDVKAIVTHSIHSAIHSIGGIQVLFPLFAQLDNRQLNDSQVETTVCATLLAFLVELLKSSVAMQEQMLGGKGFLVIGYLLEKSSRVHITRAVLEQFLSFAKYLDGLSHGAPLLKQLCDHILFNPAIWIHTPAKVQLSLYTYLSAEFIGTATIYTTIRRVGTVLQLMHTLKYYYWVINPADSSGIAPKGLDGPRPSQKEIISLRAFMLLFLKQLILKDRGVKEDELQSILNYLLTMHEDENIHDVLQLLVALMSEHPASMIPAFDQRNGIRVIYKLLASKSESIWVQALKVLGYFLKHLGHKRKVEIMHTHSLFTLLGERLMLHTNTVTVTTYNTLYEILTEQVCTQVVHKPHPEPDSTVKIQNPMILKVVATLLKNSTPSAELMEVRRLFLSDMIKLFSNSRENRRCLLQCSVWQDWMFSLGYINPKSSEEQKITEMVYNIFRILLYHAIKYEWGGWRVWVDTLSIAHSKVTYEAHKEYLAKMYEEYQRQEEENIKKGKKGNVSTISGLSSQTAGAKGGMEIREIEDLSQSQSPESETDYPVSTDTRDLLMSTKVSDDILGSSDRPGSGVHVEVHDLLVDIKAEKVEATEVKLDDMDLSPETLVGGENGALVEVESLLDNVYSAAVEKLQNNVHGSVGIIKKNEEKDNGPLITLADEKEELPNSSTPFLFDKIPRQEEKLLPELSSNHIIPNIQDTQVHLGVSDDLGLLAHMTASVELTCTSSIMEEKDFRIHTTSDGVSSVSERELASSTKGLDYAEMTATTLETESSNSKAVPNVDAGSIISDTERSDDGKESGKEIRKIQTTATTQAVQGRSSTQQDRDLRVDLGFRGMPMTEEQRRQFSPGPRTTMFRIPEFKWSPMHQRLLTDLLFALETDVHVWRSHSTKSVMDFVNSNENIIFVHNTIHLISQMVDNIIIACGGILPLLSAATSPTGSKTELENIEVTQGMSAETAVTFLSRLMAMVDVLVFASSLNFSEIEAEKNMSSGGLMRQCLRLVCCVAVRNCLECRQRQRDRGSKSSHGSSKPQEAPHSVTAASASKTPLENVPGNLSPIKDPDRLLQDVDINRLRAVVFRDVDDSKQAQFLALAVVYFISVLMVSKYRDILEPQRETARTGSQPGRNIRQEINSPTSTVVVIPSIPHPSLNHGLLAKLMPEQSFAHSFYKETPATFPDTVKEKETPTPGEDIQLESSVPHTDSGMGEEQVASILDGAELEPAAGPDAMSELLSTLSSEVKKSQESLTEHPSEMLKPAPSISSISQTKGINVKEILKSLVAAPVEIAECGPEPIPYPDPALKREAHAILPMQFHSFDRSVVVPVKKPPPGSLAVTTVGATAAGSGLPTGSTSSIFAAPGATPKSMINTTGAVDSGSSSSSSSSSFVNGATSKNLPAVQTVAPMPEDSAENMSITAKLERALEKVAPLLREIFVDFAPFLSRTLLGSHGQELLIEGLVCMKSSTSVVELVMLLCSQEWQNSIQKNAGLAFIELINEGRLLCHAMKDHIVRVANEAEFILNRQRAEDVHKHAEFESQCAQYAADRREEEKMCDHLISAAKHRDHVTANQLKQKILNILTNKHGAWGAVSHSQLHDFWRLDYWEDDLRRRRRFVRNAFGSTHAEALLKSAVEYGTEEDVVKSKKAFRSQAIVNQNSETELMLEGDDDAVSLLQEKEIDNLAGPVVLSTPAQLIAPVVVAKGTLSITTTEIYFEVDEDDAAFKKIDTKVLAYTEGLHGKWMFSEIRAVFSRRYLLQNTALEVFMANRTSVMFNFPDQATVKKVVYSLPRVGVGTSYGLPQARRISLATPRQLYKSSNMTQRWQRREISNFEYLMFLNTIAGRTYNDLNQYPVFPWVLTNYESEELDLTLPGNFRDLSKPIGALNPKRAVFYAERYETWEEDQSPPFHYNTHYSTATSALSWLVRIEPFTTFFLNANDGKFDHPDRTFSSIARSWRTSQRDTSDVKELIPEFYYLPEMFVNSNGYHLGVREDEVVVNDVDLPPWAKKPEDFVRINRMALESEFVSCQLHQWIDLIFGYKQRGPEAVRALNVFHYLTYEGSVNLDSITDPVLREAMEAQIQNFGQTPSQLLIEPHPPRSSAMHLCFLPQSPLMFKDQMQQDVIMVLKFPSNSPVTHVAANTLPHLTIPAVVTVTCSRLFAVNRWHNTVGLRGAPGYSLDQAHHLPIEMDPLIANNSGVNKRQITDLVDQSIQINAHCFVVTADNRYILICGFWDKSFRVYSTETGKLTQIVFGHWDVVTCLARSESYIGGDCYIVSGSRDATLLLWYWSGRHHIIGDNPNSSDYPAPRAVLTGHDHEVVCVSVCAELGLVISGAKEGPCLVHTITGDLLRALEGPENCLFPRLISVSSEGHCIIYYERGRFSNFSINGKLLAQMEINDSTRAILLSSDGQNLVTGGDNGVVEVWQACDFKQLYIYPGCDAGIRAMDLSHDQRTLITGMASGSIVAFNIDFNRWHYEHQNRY

T1: GABAA receptor γ2 subunit (GABAAR γ2-containing receptors), endogenous (mouse (endogenous in cortex)) (UniProt P22723)
T1 sequence: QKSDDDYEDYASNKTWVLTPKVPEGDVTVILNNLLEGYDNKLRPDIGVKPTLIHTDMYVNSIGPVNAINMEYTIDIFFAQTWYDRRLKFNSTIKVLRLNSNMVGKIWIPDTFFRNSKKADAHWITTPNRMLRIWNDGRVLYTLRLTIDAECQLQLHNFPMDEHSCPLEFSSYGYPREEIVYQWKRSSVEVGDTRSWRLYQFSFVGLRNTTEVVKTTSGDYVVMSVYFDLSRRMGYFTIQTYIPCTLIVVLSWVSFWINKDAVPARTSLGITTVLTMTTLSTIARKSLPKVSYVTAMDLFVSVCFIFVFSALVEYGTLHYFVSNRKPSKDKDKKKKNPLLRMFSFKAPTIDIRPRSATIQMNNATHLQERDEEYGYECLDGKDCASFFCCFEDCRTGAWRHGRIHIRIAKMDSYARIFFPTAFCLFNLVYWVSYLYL

B1: Gephyrin (endogenous) (protein, UniProt Q8BUV3 1-769)
chain: MATEGMILTNHDHQIRVGVLTVSDSCFRNLAEDRSGINLKDLVQDPSLLGGTISAYKIVPDEIEEIKETLIDWCDEKELNLILTTGGTGFAPRDVTPEATKEVIEREAPGMALAMLMGSLNVTPLGMLSRPVCGIRGKTLIINLPGSKKGSQECFQFILPALPHAIDLLRDAIVKVKEVHDELEDLPSPPPPLSPPPTTSPHKQTEDKGVQCEEEEEEKKDSGVASTEDSSSSHITAAALAAKIPDSIISRGVQVLPRDTASLSTTPSESPRAQATSRLSTASCPTPKQIRRPDESKGVASRVGSLKARLPSCSSTYSVSEVQSRCSSKENILRASHSAVDITKVARRHRMSPFPLTSMDKAFITVLEMTPVLGTEIINYRDGMGRVLAQDVYAKDNLPPFPASVKDGYAVRAADGPGDRFIIGESQAGEQPTQTVMPGQVMRVTTGAPIPCGADAVVQVEDTELIRESDDGTEELEVRILVQARPGQDIRPIGHDIKRGECVLAKGTHMGPSEIGLLATVGVTEVEVNKFPVVAVMSTGNELLNPEDDLLPGKIRDSNRSTLLATIQEHGYPTINLGIVGDNPDDLLNALNEGISRADVIITSGGVSMGEKDYLKQVLDIDLHAQIHFGRVFMKPGLPTTFATLDIDGVRKIIFALPGNPVSAVVTCNLFVVPALRKMQGILDPRPTIIKARLSCDVKLDPRPEYHRCILTWHHQEPLPWAQSTGNQMSSRLMSMRSANGLLMLPPKTEQYVELHKGEVVDVMVIGRL
B2: Full-length gephyrin (purified) (protein, UniProt Q03555 1-768)
chain: MATEGMILTNHDHQIRVGVLTVSDSCFRNLAEDRSGINLKDLVQDPSLLGGTISAYKIVPDEIEEIKETLIDWCDEKELNLILTTGGTGFAPRDVTPEKFPTFPFCGLQKGATKEVIEREAPGMALAMLMGSLNVTPLGMLSRPVCGIRGKTLIINLPGSKKGSQECFQFILPALPHAIDLLRDAIVKVKEVHDELEDLPSPPPPLSPPPTTSPHKQTEDKGVQCEEEEEEKKDSGVASTEDSSSSHITAAALAAKIPDSIISRGVQVLPRDTASLSTTPSESPRAQATSRLSTASCPTPKQIRRPDESKGVASRVGSLKVQSRCSSKENILRASHSAVDITKVARRHRMSPFPLTSMDKAFITVLEMTPVLGTEIINYRDGMGRVLAQDVYAKDNLPPFPASVKDGYAVRAADGPGDRFIIGESQAGEQPTQTVMPGQVMRVTTGAPIPCGADAVVQVEDTELIRESDDGTEELEVRILVQARPGQDIRPIGHDIKRGECVLAKGTHMGPSEIGLLATVGVTEVEVNKFPVVAVMSTGNELLNPEDDLLPGKIRDSNRSTLLATIQEHGYPTINLGIVGDNPDDLLNALNEGISRADVIITSGGVSMGEKDYLKQVLDIDLHAQIHFGRVFMKPGLPTTFATLDIDGVRKIIFALPGNPVSAVVTCNLFVVPALRKMQGILDPRPTIIKARLSCDVKLDPRPEYHRCILTWHHQEPLPWAQSTGNQMSSRLMSMRSANGLLMLPPKTEQYVELHKGEVVDVMVIGRL

Assays:
[1] = molecular target: T1, GABAA receptor γ2 subunit (GABAAR γ2-containing receptors), endogenous (mouse (endogenous in cortex)); assay: co-IP; antibody on Dynabeads Protein G incubated 2-4 h with adult mouse cortical lysate P2; IM-Ac buffer with 1% Triton, pH 7.2, 4 °C; Western blot
GFP-Nbea = GFP-Nbea (UniProt Q9EPN1); assay: pull-down; GFP-Nbea from COS-7 lysate held on GFP-Trap magnetic beads, stringently washed (500 mM NaCl, 0.1% SDS, 1% Triton X-100) to remove ancillary proteins, then incubated 1 h with 4 µg purified gephyrin; 4 °C; Western blot; both purified

Binder	binding [1]	binding (GFP-Nbea)
B1	binds	–
B2	–	binds
